Our source for the growth inhibition values is PubChem BioAssay (NCI).

Structures are written as SMILES. Not every entry of the source has a single result; some have several. Only these are listed. Rule as the data show it: active = growth inhibition above about 70%; inactive = the rest. There may be further records. Values given together are repeated measurements across runs, samples, wells, individuals or studies. The source holds several records for some structures; these can differ, active in one and inactive in another.

Assay [1] in a line: NCI Yeast Anticancer Drug Screen. Data for the rad50 strain (AID 155).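 Also: 0% = growth of vehicle-only cultures of the same strain.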 The note with it: S. cerevisiae rad50 strain growth inhibition; at 50.0 µM; stronger effect = higher value.
Assay [2] can be described thus: NCI Yeast Anticancer Drug Screen. Data for the mec2-1 strain (AID 157). The note with it: S. cerevisiae mec2-1 strain, at 50.0 µM, stronger effect = higher value.
Assay [3] is described as follows: NCI Yeast Anticancer Drug Screen. Data for the sgs1 mgt1 strain (AID 161).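 Also: 0% = growth of cultures given vehicle only.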 Conditions: S. cerevisiae sgs1 mgt1 strain, at 50.0 µM, stronger effect = higher value.
The nature of assay [4]: NCI Yeast Anticancer Drug Screen. Data for the cln2 rad14 strain (AID 165).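 Also: 0% = growth equal to vehicle treated cultures.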 Conditions: S. cerevisiae cln2 rad14 strain, at 50.0 µM, stronger effect = higher value.
The nature of assay [5]: NCI Yeast Anticancer Drug Screen. Data for the bub3 strain (AID 167). Conditions: S. cerevisiae bub3 mutant strain, at 50.0 µM, stronger effect = higher value.
Assay [6] in a line: NCI Yeast Anticancer Drug Screen. Data for the mlh1 rad18 strain (AID 175). Conditions: S. cerevisiae mlh1 rad18 strain growth inhibition; at 50.0 µM; stronger effect = higher value.

For the molecule `COc1nc(N)c(N=CC(OC(C)=O)C(OC(C)=O)C(COC(C)=O)OC(C)=O)c(=O)n1C` (configuration not stated), the growth inhibition result is “inactive: 10.2, 29.9, 1.15, 36.2% [separate samples]” in assay [1]; “inactive: 63.2, 11.4, -2.05, 44% [separate samples]” in assay [2]; “inactive: 65, -6.2, -8.6, -2.05% [separate samples]” in assay [3]; “active: 77.4%, 95.2%, 90% and inactive: 0.35% [separate samples]” in assay [4]; “active: 91.8% and inactive: -7%, 9.1%, 44.3% [separate samples]” in assay [5]; “active: 76.5% and inactive: 17.9%, 0.9%, 67.8% [separate samples]” in assay [6].

On to `COc1cccc2c1C(=O)c1c(O)c3c(c(O)c1C2=O)CC(O)(C(=O)CO)CC3OC1CC(N)C(O)C(C)O1` (configuration not stated), for which the growth inhibition entry was “inactive: 19.4, 13.1, 20.9, -25.3% and active: 74% [separate samples]” in assay [1]; “inactive: 14.9, 7.2, -2.25, -40.4, 27.4% [separate samples]” in assay [2]; “inactive: -0.4, -14.6, -16.8, -31.2, 32.6% [separate samples]” in assay [3]; “inactive: 15.4, -5.4, -12.3, -40.5, 25% [separate samples]” in assay [4]; “inactive: -27.1, -15.6, -10.6, -77, 48.9% [separate samples]” in assay [5]; “inactive: -8.45, -46.5, -29.1, -64.2% and active: 75.2% [separate samples]” in assay [6].
